Measured values: PubChem BioAssay AID662 (National Center for Advancing Translational Sciences (NCATS), 2007)
The campaign covered roughly 71,000 compounds. About 1,800 (2.5%) were called active. The shares of active, inactive and inconclusive entries below differ from those in the screen. Calls come from the whole dose curve; as a rule, active = well fitted activation curve with a large enough effect in the signal ratio, with a control signal flat (not every such curve was filed as active); inconclusive = small, poorly fitted or top-dose-only effect, or effect the other way, or a change in a side signal; inactive = flat fitted curve, though single readings scatter; the % refers to the signal ratio. A potency beside an inconclusive call is a rough fit, not a confirmed value.

Experiment: Cell signaling CRE-BLA (Fsk stim); for activity change, negative = inhibition: % of control where 0% means no effect
Conditions: CHO CRE-bla reporter (cAMP response element driving beta-lactamase), forskolin EC10, beta-lactamase ratio; activity change, negative = inhibition: at 38.2 µM (top of the series) unless noted
Method in brief: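 Forskolin analogue NKH 477 at EC10 stimulated CRE-driven beta-lactamase in CHO cells alongside compound dilution series. Beta-lactamase was measured with CCF4, excitation 405 nm, emission ratio 460/530 nm.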
Potency is the fitted concentration of half-maximal effect; tags give direction and shape of the fitted curve.

**Q.** For O=C(Nc1ccccc1N1CCCCC1)c1ncoc1-c1ccc(F)cc1, which activity change, negative = inhibition is on record?
**A.** inconclusive: -5.19%

**Q.** With COc1ccc(CCN(C)C(=O)CSc2nccn2C)cc1OC as the compound, how does the activity change, negative = inhibition read?
**A.** inconclusive: 29.8%

**Q.** Which “activity change, negative = inhibition” value does the source give for Cc1nc2scc(-c3ccco3)c2c(=O)n1/N=C/N(C)C here?
**A.** inactive: 14.3%

**Q.** For CCOC(=O)N1CC=C2C(C#N)=C(N)C(C#N)(C#N)[C@H](c3ccccc3OCC)[C@H]2C1, which “activity change, negative = inhibition” value is on record?
**A.** inactive: -11.4%

**Q.** For CCCC[C@@H]1C[C@H]1C(NC(=O)c1ccccc1)c1ccccc1 (stereo not given in full), which “activity change, negative = inhibition” value is on record?
**A.** inactive: 6.5%

**Q.** Which Potency does the source give for CCOC(=O)C1=C(N)N(c2ccc(N3CCCCC3)cc2)C(=O)C1 here?
**A.** inconclusive: 10 µM [falling, single point]

**Q.** Which Potency does the source give for CC(=O)Nc1ccc(S(=O)(=O)N(Cc2ccco2)CC2CCCO2)cc1 (stereo not given) here?
**A.** inconclusive: 5.01 µM [rising, single point]

**Q.** With Cc1nc(SCC(=O)NCc2ccco2)c2c(C)c(C)sc2n1 as the compound, how does the Potency read?
**A.** active: 3.16 µM

**Q.** Which “activity change, negative = inhibition” value does the source give for Cn1cccc1-c1nc2ccccc2n1Cc1ccccc1 here?
**A.** inactive: 1.99%

**Q.** For O=c1[nH]c2cc3c(cc2cc1CN(Cc1nnnn1CC1CCCO1)C1CCCCC1)OCO3 (stereo not given), which “activity change, negative = inhibition” value is on record?
**A.** inactive: -2.02%

**Q.** Which activity change, negative = inhibition does the source give for CCOC(=O)N1CCC(N2C(=O)c3ccccc3C2Nc2cc(C(=O)OC)cc(C(=O)OC)c2)CC1 (stereo not given) here?
**A.** inconclusive: 27%

**Q.** With O=C1c2ccccc2-c2c1cccc2C(=O)N1CCN(C(=O)c2ccco2)CC1 as the compound, how does the activity change, negative = inhibition read?
**A.** inconclusive: 16.7% [at 7.6 µM]

**Q.** For COc1cc([C@H](O)CO)ccc1O, which “activity change, negative = inhibition” value is on record?
**A.** inactive: 5.91%

**Q.** With Cc1ccc2c(c1)N(CC(=O)c1cccc(Cl)c1)C(=O)C(C)O2 (stereo not given) as the compound, how does the “activity change, negative = inhibition” value read?
**A.** inactive: 4.99%

**Q.** With Cc1ccc2cc(CN(CC(C)C)C(=O)C3CCCO3)c(=O)[nH]c2c1 (stereo not given) as the compound, how does the “activity change, negative = inhibition” value read?
**A.** inactive: -4.53%

**Q.** Which activity change, negative = inhibition does the source give for CCN(CC)C(=O)CSc1nc2ccccc2c(=O)n1-c1ccccc1OC here?
**A.** inconclusive: 29.9%

**Q.** Which Potency does the source give for COc1cc(NS(=O)(=O)c2ccc(C)cc2)c2ncccc2c1 here?
**A.** inconclusive: 12.6 µM [rising, partial curve]

**Q.** With CC(C)OCCCNC(=O)CCN1C(=O)COc2ccccc21 as the compound, how does the “activity change, negative = inhibition” value read?
**A.** inactive: -2.25%

**Q.** With O=C(c1ccccc1)N1CCCC(c2nc3c(nnn3Cc3ccccc3)c(=O)[nH]2)C1 (stereo not given) as the compound, how does the activity change, negative = inhibition read?
**A.** inconclusive: 21.7%

**Q.** For COc1ccc(C(=O)Nc2ccc(S(=O)(=O)Nc3cc(C)nc(C)n3)cc2)c(OC)c1, which Potency is on record?
**A.** inconclusive: 5.01 µM [rising, single point]

**Q.** For O=c1[nH]c(CN2CCc3ccccc32)nc2scc(-c3cccs3)c12, which activity change, negative = inhibition is on record?
**A.** inconclusive: 4.67%

**Q.** For COc1ccc2c(c1)nc1n2CN(CC2CCCO2)CN1Cc1ccccc1 (stereo not given), which Potency is on record?
**A.** inconclusive: 12.6 µM [rising, single point]

**Q.** With COC(=O)N1CCC2(CCCN(c3ncccn3)C2)CC1 as the compound, how does the “activity change, negative = inhibition” value read?
**A.** inactive: 1.67%

**Q.** For COC(=O)c1sccc1NC(=O)c1ccco1, which Potency is on record?
**A.** active: 12.6 µM

**Q.** For COc1ccccc1N(CC(=O)NCCSc1ccccc1)S(C)(=O)=O, which activity change, negative = inhibition is on record?
**A.** inconclusive: -4.48% [at 7.6 µM]

**Q.** Which “activity change, negative = inhibition” value does the source give for CCN(CC)c1ccc(NC(=O)C2CCCN(S(=O)(=O)c3cccnc3)C2)c(C)c1 (stereo not given) here?
**A.** inactive: -1.29%

**Q.** For COc1cccc2cc(-c3nc(-c4cccs4)cs3)c(=O)oc12, which activity change, negative = inhibition is on record?
**A.** inconclusive: 29.8% [fluorescent]

**Q.** For COc1ccc(C2CC(=O)C3=C(C2)Nc2ncnn2C3c2ccccc2C)cc1 (stereo not given), which “activity change, negative = inhibition” value is on record?
**A.** inactive: 17.3%

**Q.** With O=C1CC[C@H](N2C(=O)c3ccccc3C2=O)C(=O)N1 as the compound, how does the activity change, negative = inhibition read?
**A.** inactive

**Q.** Which “activity change, negative = inhibition” value does the source give for Cc1cccc(-c2nc(CN3CCCC(C(=O)NC4CCCCCC4)C3)c(C)o2)c1 (stereo not given) here?
**A.** inactive: -17.2%

**Q.** Which Potency does the source give for O=C(NCc1cccnc1)C1CC(=O)N(C2CCCCC2)C1 (stereo not given) here?
**A.** inconclusive: 25.1 µM [falling, single point]

**Q.** For N=c1c(S(=O)(=O)c2ccc(Cl)cc2)cc2c(=O)n3ccccc3nc2n1CCN1CCOCC1, which Potency is on record?
**A.** inconclusive: 6.31 µM [rising, partial curve]

**Q.** Which activity change, negative = inhibition does the source give for COC(=O)C1C(=O)C2=C(CC1C)NC(C)=C(C(=O)OCc1ccc(OC)cc1)C2c1ccc(C)o1 (stereo not given) here?
**A.** inconclusive: 25% [fluorescent]

**Q.** Which Potency does the source give for COCc1cc(C)nc(Nc2ccccc2C)c1C#N here?
**A.** inconclusive: 12.6 µM [rising, single point]

**Q.** With Cc1cc(C)cc(C(=O)n2cnnc2N)c1 as the compound, how does the activity change, negative = inhibition read?
**A.** inconclusive: -28.9%

**Q.** Which “activity change, negative = inhibition” value does the source give for C=CCn1c(=O)c2ccccc2n2c(Sc3nnnn3-c3ccccc3)nnc12 here?
**A.** inactive: -10.2%

**Q.** With O=C(c1ccccc1Cl)N1CCCC(c2nc3c(nnn3Cc3ccccc3)c(=O)[nH]2)C1 (stereo not given) as the compound, how does the activity change, negative = inhibition read?
**A.** inconclusive: 26.3%

**Q.** Which activity change, negative = inhibition does the source give for Cc1cc(C)c(NC(=O)CS(=O)CC(=O)N2CCN(c3ccccc3)CC2)c(C)c1 (stereo not given) here?
**A.** inconclusive: -10.2%

**Q.** Which activity change, negative = inhibition does the source give for Cc1ccc(Cn2nnc3c(=O)n(Cc4cccc(C)c4)cnc32)cc1 here?
**A.** inconclusive: 186%

**Q.** With COc1cc(NC(=O)c2ccc(S(=O)(=O)N(C)C)cc2)cc(OC)c1OC as the compound, how does the Potency read?
**A.** inconclusive: 10 µM [rising, single point]
